# Experimental data taken from the supplement of paper PMC4604168 (melanoma cell lines).
# The other results are listed elsewhere or left out. Most values come without repeats; read them as rough.
# Key:
# Assay in all cases: cell count relative to DMSO control; melanoma cells; higher = more viable cells
# Settings in all cases: library dose: low library concentration; 72 h
# [1] = test system: WM115
# [2] = test system: WM1716
# [3] = test system: WM1745
# [4] = test system: WM3526
# [5] = test system: WM3619
# [6] = test system: WM451Lu
# 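Note: cell number obtained by counting DAPI-stained nuclei in high-throughput microscope images with image analysis software, screen run in 1,536-well plates.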
SMILES,cell count [1] [%],cell count [2] [%],cell count [3] [%],cell count [4] [%],cell count [5] [%],cell count [6] [%]
"O=C(Nc1cc(C(F)(F)F)cc(C(F)(F)F)c1)c1cc(Cl)ccc1O + CCCS(=O)(=O)Nc1ccc(F)c(C(=O)c2c[nH]c3ncc(Cl)cc23)c1F [PLX4720] (first compound 0.016 µM, partner dose 0.08 µM)",102,123,105,84,98.7,104
"Cc1cc(N2CCOCC2)cc2[nH]c(-c3c(NC[C@@H](O)c4cccc(Cl)c4)cc[nH]c3=O)nc12 + O=C(Nc1ccccc1)c1cc([N+](=O)[O-])ccc1Cl [GW9662] (first compound 0.2 µM, partner dose 2 µM)",100,104,86.8,104,97.2,123
"O=C(O)c1ccc2c(c1)nc(Nc1cccc(Cl)c1)c1ccncc12 + Nc1ccn([C@@H]2O[C@H](CO)[C@@H](O)C2(F)F)c(=O)n1 [gemcitabine] (first compound 0.4 µM, partner dose 0.0004 µM)",108,85.2,93.1,81.2,63.1,98.1
"Cc1cc(N2CCOCC2)cc2[nH]c(-c3c(NC[C@@H](O)c4cccc(Cl)c4)cc[nH]c3=O)nc12 + CN(NC(=O)CC(=O)NN(C)C(=S)c1ccccc1)C(=S)c1ccccc1 [STA4783] (first compound 0.2 µM, partner dose 0.006 µM)",96.9,84.2,23.4,93.6,55.4,115
"Cn1nnc2c(C(N)=O)ncn2c1=O [temozolomide] + C=CCn1c(=O)c2cnc(Nc3ccc(N4CCN(C)CC4)cc3)nc2n1-c1cccc(C(C)(C)O)n1 [MK1775] (first compound 2 µM, partner dose 0.02 µM)",79.8,55.5,81,96.5,88.9,81.1
"O=C(O)[C@@H]1[O][Sb](=[O])([O][Sb]2(=[O])[O][C@H]([C@H](O)CO)[C@H](O)[C@H](C(=O)O)[O]2)[O][C@H]([C@H](O)CO)[C@@H]1O (some centres undefined) [stibogluconate] + COc1ccc(-c2ccc3c(N4CCOCC4)nc(N4C[C@@H](C)O[C@@H](C)C4)nc3n2)cc1CO [KU0063794] (first compound 2 µM, partner dose 0.02 µM)",94.8,102,98.3,92.2,80.4,116
"Cn1nnc2c(C(N)=O)ncn2c1=O [temozolomide] + N#Cc1c(O)c2c(-c3ccc(-c4ccccc4O)cc3)csc2[nH]c1=O [A769662] (first compound 2 µM, partner dose 2 µM)",110,96.3,106,112,73.6,109
"O=C(O)[C@@H]1[O][Sb](=[O])([O][Sb]2(=[O])[O][C@H]([C@H](O)CO)[C@H](O)[C@H](C(=O)O)[O]2)[O][C@H]([C@H](O)CO)[C@@H]1O (some centres undefined) [stibogluconate] + COc1cc(Nc2ncc(F)c(Nc3ccc4c(n3)NC(=O)C(C)(C)O4)n2)cc(OC)c1OC [Tamatinib] (first compound 2 µM, partner dose 0.4 µM)",96,101,56,84.9,96.1,105
"O=C(O)[C@@H]1[O][Sb](=[O])([O][Sb]2(=[O])[O][C@H]([C@H](O)CO)[C@H](O)[C@H](C(=O)O)[O]2)[O][C@H]([C@H](O)CO)[C@@H]1O (some centres undefined) [stibogluconate] + O=c1cc(-c2cccc3c2Sc2ccccc2S3)oc(N2CCOCC2)c1 [KU55933] (first compound 2 µM, partner dose 1 µM)",93.7,85.9,95.4,88.8,83.8,111
"O=C(Nc1cc(C(F)(F)F)cc(C(F)(F)F)c1)c1cc(Cl)ccc1O + Cc1nc(Nc2ncc(C(=O)Nc3c(C)cccc3Cl)s2)cc(N2CCN(CCO)CC2)n1 [dasatanib] (first compound 0.016 µM, partner dose 0.004 µM)",76.8,91.4,64.4,123,90.7,105
"O=C(Nc1cc(C(F)(F)F)cc(C(F)(F)F)c1)c1cc(Cl)ccc1O + NCC(=O)Nc1ccc(-n2nc(C(F)(F)F)cc2-c2ccc3c(ccc4ccccc43)c2)cc1 [OSU03012] (first compound 0.016 µM, partner dose 1 µM)",93.9,95.9,115,49.2,107,56.3
"O=C(O)c1ccc2c(c1)nc(Nc1cccc(Cl)c1)c1ccncc12 + Cc1ccc(NC(=O)c2cccc(N(C)C)c2)cc1NC(=O)c1ccc(O)cc1 [ZM336372] (first compound 0.4 µM, partner dose 2 µM)",94.8,90,80.5,78.6,85.1,85.2
"O=C(Nc1cc(C(F)(F)F)cc(C(F)(F)F)c1)c1cc(Cl)ccc1O + Cn1c(Nc2ccc(C(F)(F)F)cc2)nc2cc(Oc3ccnc(-c4ncc(C(F)(F)F)[nH]4)c3)ccc21 [CHIR265] (first compound 0.016 µM, partner dose 0.08 µM)",62.5,75.2,79.2,56.3,81.1,128
"O=C(O)[C@@H]1[O][Sb](=[O])([O][Sb]2(=[O])[O][C@H]([C@H](O)CO)[C@H](O)[C@H](C(=O)O)[O]2)[O][C@H]([C@H](O)CO)[C@@H]1O (some centres undefined) [stibogluconate] + Nc1ccn([C@@H]2O[C@H](CO)[C@@H](O)C2(F)F)c(=O)n1 [gemcitabine] (first compound 2 µM, partner dose 0.0004 µM)",96.1,92.8,68.1,88.3,60.8,86.1
"O=C(Nc1cc(C(F)(F)F)cc(C(F)(F)F)c1)c1cc(Cl)ccc1O + C[C@@H](Oc1cc(-c2cnn(C3CCNCC3)c2)cnc1N)c1c(Cl)ccc(F)c1Cl [Crizotinib] (first compound 0.016 µM, partner dose 0.2 µM)",115,100,108,102,103,113
"O=C(O)[C@@H]1[O][Sb](=[O])([O][Sb]2(=[O])[O][C@H]([C@H](O)CO)[C@H](O)[C@H](C(=O)O)[O]2)[O][C@H]([C@H](O)CO)[C@@H]1O (some centres undefined) [stibogluconate] + NC(=O)Nc1cc(-c2cccc(F)c2)sc1C(=O)N[C@H]1CCCNC1 [AZD7762] (first compound 2 µM, partner dose 0.02 µM)",96.6,74,100,104,79.8,85
"O=C(Nc1ccccc1)c1cc([N+](=O)[O-])ccc1Cl + O=c1cc(-c2cccc3c2Sc2ccccc2S3)oc(N2CCOCC2)c1 [KU55933] (first compound 2 µM, partner dose 1 µM)",95.2,97,97.5,99.2,123,94.8
"O=C(O)c1ccc2c(c1)nc(Nc1cccc(Cl)c1)c1ccncc12 + Nc1nc(F)nc2c1ncn2[C@@H]1O[C@H](CO)[C@@H](O)[C@@H]1O [fludarabine] (first compound 0.4 µM, partner dose 0.2 µM)",89.3,83.2,105,26.8,115,74.3
"Cn1nnc2c(C(N)=O)ncn2c1=O [temozolomide] + O=C(Nc1ccccc1)c1cc([N+](=O)[O-])ccc1Cl [GW9662] (first compound 2 µM, partner dose 2 µM)",103,78.2,75.5,81.9,119,113
"O=C(O)c1ccc2c(c1)nc(Nc1cccc(Cl)c1)c1ccncc12 + O=C(CCCCCCC(=O)Nc1ccccc1)NO [vorinostat] (first compound 0.4 µM, partner dose 0.08 µM)",102,90.4,123,106,59.5,105
"O=C(Nc1ccccc1)c1cc([N+](=O)[O-])ccc1Cl + O=S(=O)(c1ccccc1)N(CC(F)(F)F)c1ccc(C(O)(C(F)(F)F)C(F)(F)F)cc1 [T0901317] (first compound 2 µM, partner dose 1.4 µM)",86.4,85.3,79,95.7,76.7,97.6
"O=C(O)[C@@H]1[O][Sb](=[O])([O][Sb]2(=[O])[O][C@H]([C@H](O)CO)[C@H](O)[C@H](C(=O)O)[O]2)[O][C@H]([C@H](O)CO)[C@@H]1O (some centres undefined) [stibogluconate] + CNC(=O)c1cc(Oc2ccc(NC(=O)Nc3ccc(Cl)c(C(F)(F)F)c3)cc2)ccn1 [sorafenib] (first compound 2 µM, partner dose 0.4 µM)",98.8,89.8,93.3,84.6,94.5,98.1
"O=C(Nc1cc(C(F)(F)F)cc(C(F)(F)F)c1)c1cc(Cl)ccc1O + Cc1cc([N+](=O)[O-])ccc1NS(=O)(=O)c1cc(Cl)ccc1Cl [FH535] (first compound 0.016 µM, partner dose 1 µM)",90.5,93.7,100,108,101,90.7
"Cn1nnc2c(C(N)=O)ncn2c1=O [temozolomide] + Cn1cncc1[C@@](N)(c1ccc(Cl)cc1)c1ccc2c(c1)c(-c1cccc(Cl)c1)cc(=O)n2C [tipifarnib] (first compound 2 µM, partner dose 0.01 µM)",90.6,87.7,94.4,95.9,98.6,75.2
